Test results from a collection of fitness landscapes (doi:10.1016/j.celrep.2020.107928).
The full ranking holds about 81,000 sequences; the median of “one-hybrid fitness for binding NBS DNA” is about -0.1, and the highest 2% start at about 0.36. Some of the results follow.

B1: Caulobacter ParB omega fusion; a variant is named by its letters at X, in order, B8GW30 (parent)
chain: MESVVVGEPGMSEGRRGLGRGLSALLGEVDAAPAQAPGEQLGGSREAPIEILQRNPDQPRRTFREEDLEDLSNSIREKGVLQPILVRPSPDTAGEYQIVAGERAWRAAQRAGLKTVPIMVRELDDLAVLEIGIIENVQRADLNVLEEALSYKVLMEKFERTQENIAQTIGKSXSHVANXMRLLXLPDEVQSYLVSGELTAXHARAIAAAADPVALAKQIIEGGLSVRETEALARKAPNLSAGKSKGGRPPRVKDTDTQALESDLSSVLGLDVSIDHRGSTGTLTITYATLEQLDDLCNRLTRGI

Variants of: B1
Experiment: one-hybrid fitness for binding NBS DNA (the Noc-binding site; scaled: cognate 1, non-cognate 0); higher = stronger binding
Conditions: with NBS DNA site
How it was run: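 Fitness here means the log change in variant-to-wild-type read ratio between plasmids sequenced before and after selection. That scale was set so cognate equals 1 and non-cognate equals 0. The selection was a bacterial one-hybrid screen of Caulobacter ParB libraries, four specificity codons randomised, in E. coli USO carrying a HIS3 reporter with the site 19 bp from the promoter, grown 48 hours at 37°C on M9-minus-histidine with 0.1 mM IPTG and 5 mM 3-AT.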

| Variant | one-hybrid fitness for binding NBS DNA |
| --- | --- |
| QHNV | ≤ 0.2 |
| RLDS | ≤ 0.2 |
| RMRT | 0.633 |
| QIPI | ≤ 0.2 |
| DCKT | ≤ 0.2 |
| CATG | ≤ 0.2 |
| PVHT | ≤ 0.2 |
| TCAA | ≤ 0.2 |
| FTIV | ≤ 0.2 |
| SHAE | ≤ 0.2 |
| FSTL | ≤ 0.2 |
| PSMY | ≤ 0.2 |
| LDFN | ≤ 0.2 |
| RRCI | ≤ 0.2 |
| AEFV | ≤ 0.2 |
| ATSG | ≤ 0.2 |
| HGFG | ≤ 0.2 |
| MTTV | ≤ 0.2 |
| DATR | ≤ 0.2 |
| ADAS | ≤ 0.2 |
| PHKS | ≤ 0.2 |
| LMLS | ≤ 0.2 |
| NSYC | ≤ 0.2 |
| SGPV | ≤ 0.2 |
| QEVF | ≤ 0.2 |
| PKIK | ≤ 0.2 |

| Variant | one-hybrid fitness for binding NBS DNA |
| --- | --- |
| HKAN | ≤ 0.2 |
| VGPV | ≤ 0.2 |
| KRHF | ≤ 0.2 |
| QKSH | 0.241 |
| QHRG | 0.296 |
| DTGA | ≤ 0.2 |
| RNML | ≤ 0.2 |
| QCSY | 0.22 |
| RAEE | ≤ 0.2 |
| PQDF | ≤ 0.2 |
| PSWH | ≤ 0.2 |
| GVLL | ≤ 0.2 |
| CNHR | ≤ 0.2 |
| SHPR | ≤ 0.2 |
| PEIT | ≤ 0.2 |
| GSMT | ≤ 0.2 |
| YFLI | ≤ 0.2 |
| CAGL | ≤ 0.2 |
| IMTI | ≤ 0.2 |
| PFNR | ≤ 0.2 |
| TKVT | ≤ 0.2 |
| AECI | ≤ 0.2 |
| TTIY | ≤ 0.2 |
| NKKR | 0.3 |
| RSLA | ≤ 0.2 |
| HTGQ | ≤ 0.2 |

| Variant | one-hybrid fitness for binding NBS DNA |
| --- | --- |
| ITRT | ≤ 0.2 |
| GTEC | ≤ 0.2 |
| VAFS | ≤ 0.2 |
| NMGQ | ≤ 0.2 |
| PWNI | ≤ 0.2 |
| ETPA | ≤ 0.2 |
| PVPF | ≤ 0.2 |
| VNET | ≤ 0.2 |
| QNNA | ≤ 0.2 |
| TTCL | ≤ 0.2 |
| WATL | ≤ 0.2 |
| VMST | ≤ 0.2 |
| SKNM | ≤ 0.2 |
| TFLY | ≤ 0.2 |
| LNHT | ≤ 0.2 |
| TNSD | ≤ 0.2 |
| GRMV | ≤ 0.2 |
| KIVG | ≤ 0.2 |
| VCRA | ≤ 0.2 |
| RWWE | ≤ 0.2 |
| VAEL | ≤ 0.2 |
| YDNS | ≤ 0.2 |
| SDRP | ≤ 0.2 |
| CAGK | ≤ 0.2 |
| ASPC | ≤ 0.2 |
| TELM | ≤ 0.2 |

| Variant | one-hybrid fitness for binding NBS DNA |
| --- | --- |
| RITM | ≤ 0.2 |
| QMTD | ≤ 0.2 |
| CEYS | ≤ 0.2 |
| ESML | ≤ 0.2 |
| NVQS | ≤ 0.2 |
| PFFA | ≤ 0.2 |
| TGAV | ≤ 0.2 |
| LAIS | ≤ 0.2 |
| RPTC | ≤ 0.2 |
| PLVR | ≤ 0.2 |
| TIHG | ≤ 0.2 |
| QLHT | 0.393 |
| APVD | ≤ 0.2 |
| WHCR | ≤ 0.2 |
| SGTY | ≤ 0.2 |
| GHAH | ≤ 0.2 |
| VQNG | ≤ 0.2 |
| TENQ | ≤ 0.2 |
| NRFR | ≤ 0.2 |
| PTRY | ≤ 0.2 |
| NVPD | ≤ 0.2 |
| ESLS | ≤ 0.2 |
| VEHM | ≤ 0.2 |
| TGHV | ≤ 0.2 |
| GSPH | ≤ 0.2 |
| YMYN | ≤ 0.2 |

| Variant | one-hybrid fitness for binding NBS DNA |
| --- | --- |
| NRSA | ≤ 0.2 |
| EYWT | ≤ 0.2 |
| RGLI | ≤ 0.2 |
| YKSG | ≤ 0.2 |
| WGPS | ≤ 0.2 |
| CWRC | ≤ 0.2 |
| QWNK | ≤ 0.2 |
| QSSY | ≤ 0.2 |
| DKLC | ≤ 0.2 |
| RAWE | ≤ 0.2 |
| KWNG | ≤ 0.2 |
| SPPG | ≤ 0.2 |
| YGSE | ≤ 0.2 |
| RWVY | ≤ 0.2 |
| HKSW | ≤ 0.2 |
| VQRT | ≤ 0.2 |
| LMHS | ≤ 0.2 |
| TMEV | ≤ 0.2 |
| KECK | ≤ 0.2 |
| GILA | ≤ 0.2 |
| GLTM | ≤ 0.2 |
| KGQG | ≤ 0.2 |
| IPQR | ≤ 0.2 |
| LTEA | ≤ 0.2 |
| VNLP | ≤ 0.2 |
| QAVP | ≤ 0.2 |

| Variant | one-hybrid fitness for binding NBS DNA |
| --- | --- |
| FLKR | ≤ 0.2 |
| KACS | ≤ 0.2 |
| RCVA | ≤ 0.2 |
| ERNE | ≤ 0.2 |
| MMQY | ≤ 0.2 |
| YVAF | ≤ 0.2 |
| KQVG | ≤ 0.2 |
| AGLG | ≤ 0.2 |
| IYPG | ≤ 0.2 |
| SWPD | ≤ 0.2 |
| EKNI | ≤ 0.2 |
| QRHR | 1.06 |
| PAGS | ≤ 0.2 |
| WGFL | ≤ 0.2 |
| NFMA | ≤ 0.2 |
| LCTG | ≤ 0.2 |
| PVKT | ≤ 0.2 |
| SMWS | ≤ 0.2 |
| ESYW | ≤ 0.2 |
| YAYY | ≤ 0.2 |
| RKTH | 0.233 |
| IPVQ | ≤ 0.2 |
| QGLH | ≤ 0.2 |
